We go through 7 substances from article PMC11707101.

The chains behind the UniProt entries cited, without tags or fusion partners.
UniProt Q8CIG8: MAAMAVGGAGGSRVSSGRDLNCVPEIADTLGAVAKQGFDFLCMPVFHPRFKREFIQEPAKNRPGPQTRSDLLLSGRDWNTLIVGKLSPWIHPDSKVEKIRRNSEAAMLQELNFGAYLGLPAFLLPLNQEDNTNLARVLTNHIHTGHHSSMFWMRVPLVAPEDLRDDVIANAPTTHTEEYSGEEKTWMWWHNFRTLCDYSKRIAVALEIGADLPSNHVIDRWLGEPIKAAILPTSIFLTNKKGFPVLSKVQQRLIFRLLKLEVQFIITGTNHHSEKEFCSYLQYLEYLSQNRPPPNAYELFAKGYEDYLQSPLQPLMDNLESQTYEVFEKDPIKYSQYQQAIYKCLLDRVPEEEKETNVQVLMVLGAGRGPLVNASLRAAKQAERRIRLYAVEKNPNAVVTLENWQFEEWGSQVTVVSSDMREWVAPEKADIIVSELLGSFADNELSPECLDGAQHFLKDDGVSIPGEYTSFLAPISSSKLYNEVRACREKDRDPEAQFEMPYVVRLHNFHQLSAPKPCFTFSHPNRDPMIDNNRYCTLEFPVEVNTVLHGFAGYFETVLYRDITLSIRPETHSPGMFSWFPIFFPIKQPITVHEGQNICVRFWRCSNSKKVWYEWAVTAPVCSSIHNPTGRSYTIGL
UniProt Q14258: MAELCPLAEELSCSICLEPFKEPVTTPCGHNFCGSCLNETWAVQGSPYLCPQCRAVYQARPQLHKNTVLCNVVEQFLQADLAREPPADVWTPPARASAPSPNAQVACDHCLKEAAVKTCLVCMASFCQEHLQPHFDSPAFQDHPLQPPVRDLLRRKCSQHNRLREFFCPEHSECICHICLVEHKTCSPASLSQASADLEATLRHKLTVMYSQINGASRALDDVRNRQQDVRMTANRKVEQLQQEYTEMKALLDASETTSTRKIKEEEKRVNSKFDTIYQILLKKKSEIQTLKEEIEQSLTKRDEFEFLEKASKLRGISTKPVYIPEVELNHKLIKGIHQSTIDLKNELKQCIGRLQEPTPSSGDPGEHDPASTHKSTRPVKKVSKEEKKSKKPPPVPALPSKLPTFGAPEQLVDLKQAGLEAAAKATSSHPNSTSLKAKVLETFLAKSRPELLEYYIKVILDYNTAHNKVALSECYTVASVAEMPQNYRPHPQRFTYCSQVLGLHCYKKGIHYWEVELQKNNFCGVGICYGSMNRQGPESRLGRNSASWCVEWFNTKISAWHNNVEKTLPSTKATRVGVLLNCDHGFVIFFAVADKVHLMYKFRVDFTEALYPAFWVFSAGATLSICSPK
UniProt Q13263: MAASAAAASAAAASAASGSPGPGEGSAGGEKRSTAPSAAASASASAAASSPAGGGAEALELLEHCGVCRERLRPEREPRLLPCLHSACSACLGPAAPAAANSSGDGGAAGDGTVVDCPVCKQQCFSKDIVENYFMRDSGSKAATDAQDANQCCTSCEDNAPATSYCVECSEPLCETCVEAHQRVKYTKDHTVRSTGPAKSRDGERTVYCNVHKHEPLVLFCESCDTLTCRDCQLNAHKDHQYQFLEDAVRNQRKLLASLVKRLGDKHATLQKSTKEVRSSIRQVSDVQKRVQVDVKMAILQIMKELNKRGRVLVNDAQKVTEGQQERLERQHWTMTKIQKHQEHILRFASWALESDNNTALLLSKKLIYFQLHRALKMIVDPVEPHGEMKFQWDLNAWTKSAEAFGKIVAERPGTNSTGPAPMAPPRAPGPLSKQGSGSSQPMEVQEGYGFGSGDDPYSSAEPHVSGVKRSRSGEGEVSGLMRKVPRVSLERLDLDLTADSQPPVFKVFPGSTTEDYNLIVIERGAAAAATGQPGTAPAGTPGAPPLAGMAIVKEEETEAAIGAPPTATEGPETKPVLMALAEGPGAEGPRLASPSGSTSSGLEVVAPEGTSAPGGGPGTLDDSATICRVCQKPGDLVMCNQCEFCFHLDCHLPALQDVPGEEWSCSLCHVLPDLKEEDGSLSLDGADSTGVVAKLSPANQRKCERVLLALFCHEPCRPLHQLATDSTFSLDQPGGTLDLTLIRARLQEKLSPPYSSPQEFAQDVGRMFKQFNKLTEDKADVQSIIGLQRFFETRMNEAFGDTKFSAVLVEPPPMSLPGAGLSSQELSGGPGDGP
UniProt P54578: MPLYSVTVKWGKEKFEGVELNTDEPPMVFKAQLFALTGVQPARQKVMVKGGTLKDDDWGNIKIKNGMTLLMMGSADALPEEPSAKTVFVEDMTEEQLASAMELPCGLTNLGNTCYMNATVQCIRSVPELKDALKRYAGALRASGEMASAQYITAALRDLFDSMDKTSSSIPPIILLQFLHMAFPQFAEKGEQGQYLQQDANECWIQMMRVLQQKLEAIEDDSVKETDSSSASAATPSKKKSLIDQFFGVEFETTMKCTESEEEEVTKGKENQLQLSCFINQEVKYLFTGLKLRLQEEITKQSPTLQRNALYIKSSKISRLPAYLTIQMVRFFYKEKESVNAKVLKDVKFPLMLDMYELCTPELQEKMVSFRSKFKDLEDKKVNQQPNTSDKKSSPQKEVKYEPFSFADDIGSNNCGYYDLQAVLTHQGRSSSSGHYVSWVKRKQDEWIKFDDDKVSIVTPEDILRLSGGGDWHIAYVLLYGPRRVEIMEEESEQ
UniProt O14744: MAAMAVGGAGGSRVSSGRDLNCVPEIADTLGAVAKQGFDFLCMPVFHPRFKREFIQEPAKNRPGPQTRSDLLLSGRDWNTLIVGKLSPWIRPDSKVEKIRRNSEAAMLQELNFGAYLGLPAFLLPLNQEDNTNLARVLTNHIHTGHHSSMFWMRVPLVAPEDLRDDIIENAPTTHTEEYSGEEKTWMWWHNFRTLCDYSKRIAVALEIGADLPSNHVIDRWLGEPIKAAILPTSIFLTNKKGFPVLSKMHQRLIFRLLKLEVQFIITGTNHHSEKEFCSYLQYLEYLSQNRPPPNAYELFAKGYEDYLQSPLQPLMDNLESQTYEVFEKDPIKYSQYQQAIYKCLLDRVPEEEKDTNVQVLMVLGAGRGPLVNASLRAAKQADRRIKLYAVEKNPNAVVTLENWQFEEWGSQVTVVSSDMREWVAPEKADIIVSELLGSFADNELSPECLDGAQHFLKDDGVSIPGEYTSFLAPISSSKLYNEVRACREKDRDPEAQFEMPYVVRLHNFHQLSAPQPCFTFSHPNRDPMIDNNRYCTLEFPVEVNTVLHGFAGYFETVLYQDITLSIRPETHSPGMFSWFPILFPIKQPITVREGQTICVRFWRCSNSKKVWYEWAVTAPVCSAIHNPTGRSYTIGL

The target of assay [1] is Myc-Prmt5 (UniProt Q8CIG8). The assay can be described thus: co-IP; both partners exogenous, coexpressed in HCT116 or MC38 cells; immunoprecipitation by the tag, Western blot. In general terms: In western blotting, separated proteins are transferred to a membrane and probed.
Assay [2] addresses Flag-ALKBH5 (human) (UniProt Q6P6C2). The assay can be described thus: co-IP; IP of Flag-ALKBH5 from HCT116 cells, blot for TRIM28; cells with or without coexpressed PRMT5, shCtrl or shPRMT5, DMSO or GSK595; ALKBH5-WT against ALKBH5-R316K cells.
In assay [3] the target is T1, Flag-ALKBH5-R316K (human) (UniProt Q6P6C2).
T1 sequence: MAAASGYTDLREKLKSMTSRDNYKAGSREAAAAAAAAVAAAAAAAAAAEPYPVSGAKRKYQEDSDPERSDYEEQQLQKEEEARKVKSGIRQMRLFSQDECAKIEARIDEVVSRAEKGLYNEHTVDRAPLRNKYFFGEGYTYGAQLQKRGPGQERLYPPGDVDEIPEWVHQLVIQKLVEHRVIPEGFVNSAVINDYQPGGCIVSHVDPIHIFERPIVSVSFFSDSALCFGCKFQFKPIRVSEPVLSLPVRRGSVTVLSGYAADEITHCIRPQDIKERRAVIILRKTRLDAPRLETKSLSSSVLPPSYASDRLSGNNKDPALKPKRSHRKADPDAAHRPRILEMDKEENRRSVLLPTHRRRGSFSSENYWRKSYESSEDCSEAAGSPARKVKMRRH
The assay is described as above.

The target in assay [4] is AlkB homologue 5 (ALKBH5), endogenous in HCT116 cells (human (endogenous in HCT116)) (UniProt Q6P6C2). As to the kind of experiment: co-IP; PRMT5 overexpressed in HCT116 cells; immunoprecipitation with an anti-ALKBH5 antibody.
Assay [5] deals with Prmt5, endogenous in MC38 cells (mouse (endogenous in MC38)) (UniProt Q8CIG8). The assay can be described thus: co-IP; endogenous proteins; lysates of HCT116 or MC38 cells immunoprecipitated with antibodies against the indicated proteins, immunoblot.
The target in assay [6] is TRIM25 in HCT116 cells (human (endogenous in HCT116)) (UniProt Q14258). The assay can be described thus: co-IP; in HCT116 and MC38 cells (Fig. S3G and H); bait and whether endogenous not stated.
The target in assay [7] is TRIM28 in HCT116 cells (human (endogenous in HCT116)) (UniProt Q13263). The assay is described as above.
In assay [8] the target is USP14 in HCT116 cells (human (endogenous in HCT116)) (UniProt P54578). The description is as above.
For assay [9], the target named is GST-ALKBH5 (human) (UniProt Q6P6C2). As to the kind of experiment: pull-down; GST-fused ALKBH5 incubated with HEK293T cell lysates; bound proteins by Western blot; GST as control; only the target purified.
The target of assay [10] is Flag-ALKBH5 (human) (UniProt Q6P6C2). As to the kind of experiment: co-IP; both partners exogenous, coexpressed in HCT116 or MC38 cells; immunoprecipitation by the tag, Western blot.

No constants are given. Whether binding was seen depends on the method and setting. Binding seen in cells or lysates may run through a third protein. Some binding calls cover weakened binding; strength is not graded here. For some of these results: Where a sequence is shown, tags or fusion partners need not be part of it.

On to “Flag-Alkbh5 (from UniProt Q3TSG4 1-395) (enzyme)”, for which the binding result in assay [1] is “binds”.
Consider “TRIM28 in HCT116 cells (from UniProt Q13263 1-835) (enzyme)”, for which the binding result in assay [2] and in [3] was “binds” throughout.
As to “PRMT5 overexpressed in HCT116 cells (from UniProt O14744 1-637) (enzyme)”, the binding result in [4] is recorded as “binds”.
“Alkbh5, endogenous in MC38 cells (from UniProt Q3TSG4 1-395) (enzyme)”: the binding entry in [5] is reported as “binds”.
On to “Protein arginine methyltransferase 5 (PRMT5), endogenous in HCT116 cells (from UniProt O14744 1-637) (enzyme)”, for which the binding result is “no binding” in [6], “binds” in [7] and “no binding” in assay [8].
Regarding “PRMT5 in HEK293T cell lysates (from UniProt O14744 1-637) (enzyme)”, the binding result in assay [9] is “binds”.
Regarding “exogenous TRIM28 in HCT116 cells (from UniProt Q13263 1-835) (enzyme)”, the binding result in assay [10] is on record as “binds”.
